Measurements from PubChem BioAssay AID504332 (National Center for Advancing Translational Sciences (NCATS), 2011).
The campaign covered roughly 350,000 compounds. About 31,000 (8.9%) were called active. Inconclusive results, whose numbers are uncertain, are shown with a selection of clear calls. The call rests on the fitted dose curve; in most records, active means well fitted inhibition curve with a large enough effect; inconclusive means small, poorly fitted or top-dose-only effect; inactive means no such curve, though single readings can be large or run the other way. Potencies of inconclusive entries are doubtful fits and often do not repeat.

biological target: Histone-lysine N-methyltransferase EHMT2 (Homo sapiens) (UniProt Q96KQ7); assay: qHTS Assay for Inhibitors of Histone Lysine Methyltransferase G9a; settings: G9a H3K9 monomethylation, AlphaScreen, 2 h; activity, negative = inhibition: at 59 µM (top of the series) unless noted; further: nearly all actives have a fitted effect of over 75% in size
In short: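 Quantitative HTS format: methyltransferase activity on a biotin-tagged H3K9 peptide is measured by AlphaScreen, using a rabbit anti-monomethyl-H3K9 antibody with streptavidin donor and anti-IgG acceptor beads. Final levels are 20 nM enzyme, 500 nM peptide, 20 uM SAM; 2 h RT.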
On the % scale 0 is the no-effect control and ±100 the full control effect; potency means the concentration at half of the fitted maximal effect; tags describe the fitted curve by direction and shape.

Sequence of UniProt Q96KQ7 (Q96KQ7 whole entry, looked up): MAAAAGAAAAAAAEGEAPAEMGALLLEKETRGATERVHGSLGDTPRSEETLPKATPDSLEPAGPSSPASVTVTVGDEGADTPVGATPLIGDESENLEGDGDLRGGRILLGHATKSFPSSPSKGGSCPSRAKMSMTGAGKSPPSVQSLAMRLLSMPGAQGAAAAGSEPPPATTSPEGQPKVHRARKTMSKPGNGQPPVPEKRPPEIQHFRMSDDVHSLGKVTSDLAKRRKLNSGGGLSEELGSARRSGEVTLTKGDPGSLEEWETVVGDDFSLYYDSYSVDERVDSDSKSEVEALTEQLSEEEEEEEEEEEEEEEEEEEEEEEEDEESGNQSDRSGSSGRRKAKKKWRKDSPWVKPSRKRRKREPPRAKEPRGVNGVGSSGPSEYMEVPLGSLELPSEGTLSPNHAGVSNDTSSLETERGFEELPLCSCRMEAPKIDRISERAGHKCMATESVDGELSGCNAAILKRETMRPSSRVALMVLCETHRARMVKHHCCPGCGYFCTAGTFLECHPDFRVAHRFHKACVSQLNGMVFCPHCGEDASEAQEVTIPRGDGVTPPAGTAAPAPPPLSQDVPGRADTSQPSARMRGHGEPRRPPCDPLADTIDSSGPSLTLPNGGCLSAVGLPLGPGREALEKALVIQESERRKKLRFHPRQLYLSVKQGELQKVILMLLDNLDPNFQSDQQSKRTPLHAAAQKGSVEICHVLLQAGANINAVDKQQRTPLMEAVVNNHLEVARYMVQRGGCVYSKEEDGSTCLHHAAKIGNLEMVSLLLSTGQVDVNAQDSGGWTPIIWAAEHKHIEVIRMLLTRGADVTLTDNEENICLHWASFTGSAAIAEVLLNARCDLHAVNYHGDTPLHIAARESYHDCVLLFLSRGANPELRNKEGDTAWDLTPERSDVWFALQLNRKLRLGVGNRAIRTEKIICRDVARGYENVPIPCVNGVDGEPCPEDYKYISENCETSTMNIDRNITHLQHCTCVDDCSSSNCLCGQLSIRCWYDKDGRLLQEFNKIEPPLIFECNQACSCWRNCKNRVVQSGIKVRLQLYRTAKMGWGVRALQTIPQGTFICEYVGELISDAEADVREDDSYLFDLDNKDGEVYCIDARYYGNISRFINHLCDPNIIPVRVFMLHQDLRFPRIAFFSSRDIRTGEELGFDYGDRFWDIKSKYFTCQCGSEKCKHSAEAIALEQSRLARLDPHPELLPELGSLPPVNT

Row | SMILES | Potency | activity, negative = inhibition
1 | O=C(Nc1ccc(F)c(Cl)c1)C1CCN(S(=O)(=O)c2ccc3c(c2)CCCN3C(=O)C2CCC2)CC1 | inactive | 
2 | O=C(NCCN1C(=O)S/C(=C\c2ccccc2F)C1=O)C1=COCCO1 | inconclusive: 79.4 µM [inhibitor, partial curve, poor fit] | 
3 | O=C(NC(=S)Nc1ccc(NC(=O)c2ccco2)cc1)c1ccccc1 | inconclusive: 6.31 µM [inhibitor, partial curve, poor fit] | 
4 | CCn1c(=O)c2ccccc2n(CC(=O)NC2CCCCC2)c1=O | inactive | 
5 | CC1CN(C(=S)Nc2cccc(Cl)c2Cl)CC(C)O1 (stereo unspecified) | inactive | 
6 | COC(=O)c1ccc(Oc2nc3c(c(=O)n(C)c(=O)n3C)n2Cc2ccc(Cl)c(Cl)c2)cc1 | inactive | 
7 | Cc1cccc2cc(C#N)c(SCC(=O)Nc3ccccc3N3CCOCC3)nc12 | inconclusive: 39.8 µM [inhibitor, single point] | 
8 | O=C(COC(=O)c1ccc(Cl)c([N+](=O)[O-])c1)NC1CCCC1 |  | inactive: -8.5% [at 2.33 µM]
9 | c1ccc(-c2cn3c4c(sc3n2)CCCC4)cc1 |  | inconclusive: -61.9% [inhibitor]
10 | C/C(=N\NC(=O)c1ccc2c(c1)OCO2)c1ccc2c(c1)OCO2 | inactive | 
11 | O=C(CSc1ccccc1)Nc1cccc(S(=O)(=O)N2CCCCC2)c1 |  | inactive: 14.6% [at 12.7 µM]
12 | Oc1c(C(c2cccs2)N2CCN(c3ccc(F)cc3)CC2)sc2ncnn12 (stereo unspecified) | inconclusive: 79.4 µM [inhibitor, single point] | 
13 | CCOC(=O)CS(=O)(=O)c1nc(-c2ccccc2)cc(C(F)(F)F)n1 | active: 35.5 µM | 
14 | COc1ccccc1NC(=O)Cn1cnc2c(oc3nc4c(cc32)CCCC4)c1=O | inactive | 
15 | CC(=O)C1=C(O)C(=O)N(CCO)C1c1ccccc1 (stereo unspecified) | inconclusive: 89.1 µM [inhibitor, single point] | 
16 | CCOC(=O)c1cccc(C2=CC(=O)C[C@H](c3ccc(OC)cc3)C2)c1 |  | inactive: 19.5% [at 2.33 µM]
17 | CC1CC(C)CN(C(=S)SCc2nc(N)nc(Nc3ccccc3)n2)C1 (stereo unspecified) | inconclusive: 44.7 µM [inhibitor, partial curve] | 
18 | Cc1cccc(OCC(=O)N2CCN(C(=O)CCC3CCCC3)CC2)c1 | inactive | 
19 | NC(N)=N/N=C/c1ccc2cccc(OCc3ccccc3)c2n1 | inactive | 
20 | Cc1onc(-c2c(F)cccc2Cl)c1C(=O)NC(=S)Nc1c(C)n(C)n(-c2ccccc2)c1=O | active: 31.6 µM | 
21 | COC(=O)[C@@]1(Cc2ccc(OC)cc2)[C@@H]2C(=CC(=O)[C@H]2CC(=O)C(=O)N2CCCC2)CN1C(=O)c1ccccc1 | inconclusive: 79.4 µM [inhibitor, single point] | 
